Among all 46,000 compounds or so, about 60 (0.1%) were called active. Not shown: some 3% with an inconclusive outcome. The call rests on the fitted dose curve; in most records, active means well fitted inhibition curve with a large enough effect; inconclusive means small, poorly fitted or top-dose-only effect; inactive means no such curve, though single readings can be large or run the other way. The list shows a part of the results.
Potency means the concentration at half of the fitted maximal effect.

The experiment is described as follows: Primary qHTS assay for Inhibitors of ovarian cancer metastasis using an organotypic tumor microenvironment (TME) model. Further: nearly all actives have a fitted effect of over 65% in size.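 On Potency: count of GFP cancer cells still attached after washing and fixation.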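 On activity change, negative = inhibition: plate controls were DMSO wells for no effect and tomatine positive control wells for full effect.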 Particulars: SKOV3ip1-GFP adhesion/invasion on 3D omental model, fluorescence; series mostly up to 45.8 µM; activity change, negative = inhibition: at the top concentration. Summed up: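 Adhesion/invasion was scored as fixed GFP-labeled SKOV3ip1 cell counts (488/509 nm), normalized to DMSO and tomatine controls. Cancer cells in serum-free medium, with four compound doses (0.36-46 umol/L), sat 2 hr at RT then 16 hr at 37 C on a 48 hr fibroblast/mesothelial/ECM culture.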
Regarding `COc1ccc(OC)c(NC(=O)c2nc(S(=O)(=O)Cc3ccc(F)cc3)ncc2Cl)c1`, the Potency was active: 6.31 µM.
For `CCOC(=O)N[C@H](Cc1c[nH]c2ccccc12)C(=O)Nc1cccc(Cl)c1`, the “activity change, negative = inhibition” value is inactive: -1.75%.
With `COc1ccc(N2CCN(C(CNC(=O)c3ccc(OC)c(OC)c3)c3cccnc3)CC2)cc1` (stereo not given), the “activity change, negative = inhibition” value was inactive: -17.1%.
Same read-out and setting: then `CCn1c(CN2CCN(C)CC2)nc2cc(NC(=O)c3ccc([N+](=O)[O-])cc3)ccc21`, with inactive: -6.28%.
On the same count and under the same terms, the same measure for `NC(=O)C1CCN(c2csc3ccc(F)cc3c2=O)CC1`: inactive: 10.7%.
On the same count and under the same terms, the same measure for `CCCCSc1nnc2c(n1)OC(c1ccc(Br)s1)Nc1ccccc1-2` (stereo not given): inactive: 6.76%; for `Cc1ccc(-c2nc(CSc3nnc(C)n4c3cc3occc34)c(C)o2)cc1`: inactive: 42.8%.
In the case of `Cc1ccc(NC(=O)CN(Cc2ccccc2)S(=O)(=O)c2ccc3nc(C)sc3c2)c(C)c1`, the “activity change, negative = inhibition” value is inactive: 1.6%.
Same read-out and setting: the same measure for `CCOc1ccc(-c2nc(-c3ccccc3)c(-c3ccccc3)[nH]2)cc1OCC`: inactive: -6.61%; for `O=S(=O)(NCCc1nnc2ccc(SCc3ccccc3Cl)nn12)c1ccccc1`: inactive: 13.4%; for `Cc1cc(N2CCC(C)CC2)nc2ccc(NC(=O)Cc3ccccc3Br)cc12`: inactive: -1.38%.
`CC(C)Cn1cc(NC(=O)N2CCN(c3cccc(C(F)(F)F)c3)CC2)c2ccccc2c1=O`: the “activity change, negative = inhibition” value is inactive: -1.55%.
Same read-out and setting: the same measure for `COc1ccc(CNC(=O)c2c(O)nc3c(C)cccn3c2=O)cc1`: inactive: 1.12%.
Take `CN(C)c1ccc(CNC(=O)CCCN2C(=O)c3cccnc3Oc3ccc(Cl)cc32)cc1`: the outcome was inactive.
In the case of `CCCCOC(=O)c1ccc(-n2nnc3c(sc4nc(C)cc(C)c43)c2=O)cc1`, the “activity change, negative = inhibition” value was inactive: 2.82%.
As for `Cc1cccc2nc(-c3ccccn3)c(Nc3ccccc3)n12`, the “activity change, negative = inhibition” value is inactive: -13.7%.
For the compound `Cc1ccc(CNC(=O)Cn2ccn(-c3cccc(Cl)c3)c(=O)c2=O)cc1`, the “activity change, negative = inhibition” value is inactive: 4.25%.
On the same count and under the same terms, the same measure for `O=C1CSC2(C(=O)N(Cc3cccc(C(F)(F)F)c3)c3ccccc32)N1c1ccc(F)c(F)c1` (stereo not given): inactive: -0.836%; for `N#Cc1ccccc1CSc1nnc(-c2ccc(Br)cc2)o1`: inactive: 6.84%; for `Cc1ccc2c(CC(=O)N(Cc3ccc(N(C)C)cc3)Cc3ccco3)coc2c1C`: inactive: -3.17%.
On to `Cc1ccc2oc(-c3ccc(C)c(NC(=O)/C=C/c4ccco4)c3)nc2c1`, for which the “activity change, negative = inhibition” value is inactive: -9.54%.
For `O=C(NCc1ccccc1Cl)c1nnc(Cc2cccc(F)c2)o1`, the “activity change, negative = inhibition” value was inactive: 11.6%.
Turning to `COc1cccc(-c2cc(C(F)(F)F)n3ncc(C(=O)OC(C)C)c3n2)c1`, the outcome was inactive.
As for `CCCOc1ccc(C2C(=O)N(C3CCC(C)CC3)CC(=O)N2CCc2ccccc2)cc1OC` (stereo not given), the “activity change, negative = inhibition” value was inactive: -5.77%.
For `Cc1ccc(-c2noc(CNC(=O)c3ccc(C)c(Cl)c3)n2)cc1`, the “activity change, negative = inhibition” value was inactive: 3.51%.
Still for that read-out and setting: the same measure for `CCc1ccc(OCC(=O)N(Cc2ccc(C(C)C)cc2)C2CCS(=O)(=O)C2)cc1` (stereo not given): inactive: -18.9%.
Regarding `Cc1ccc(-n2c(C)cc(/C=C(\C#N)C(=O)Nc3ccc(C)c(C)c3)c2C)cc1`, the compound was called inactive.
With `O=C(Nc1ccccc1C(F)(F)F)c1ccc(F)c(S(=O)(=O)N2CCc3ccccc3C2)c1`, the “activity change, negative = inhibition” value was inactive: 4.45%.
`CCN(CC)C(=O)C1=C(C)Nc2nc3ccccc3n2C1c1cccc(OC)c1` (stereo not given): the compound was called inactive.
On to `C[C@]12CC[C@@H]3c4ccc(O)cc4CC[C@H]3[C@H]1C[C@@H](O)[C@H]2O`, for which the “activity change, negative = inhibition” value was inactive: 4.43%.
Same read-out and setting: the same measure for `Cc1ccc(NC(=O)c2nc(S(C)(=O)=O)ncc2N(Cc2ccc(C(C)(C)C)cc2)Cc2ccco2)cc1C`: inactive: 4.59%.
With `O=S(=O)(c1ccc(OC(F)(F)F)cc1)N1CCC(c2nnnn2-c2ccc(F)cc2)CC1`, the compound was classed as inactive.
As to `CN(C(=O)CCc1nc(-c2ccccc2F)no1)c1ccc(Cl)cc1`, the “activity change, negative = inhibition” value is inactive: 3.88%.
Still for that read-out and setting: then `CCOc1ccc(-c2cc3c(=O)n(CC(=O)NCc4ccc(C)cc4)ccn3n2)cc1`, with inactive: 3.03%; and `CCN1CCSc2ccc(C(=O)NCc3ccc(OC(C)C)cc3)cc21`, with inactive: -5.15%.
Same read-out and setting: then `CCn1cc(C(=O)OCC(=O)Nc2ccc(C)c(Cl)c2)c(=O)c2ccc(C)nc21`, with inactive: -3.53%.
The same measure, in the same setting: then `COc1ccc(-c2noc(CSCC(=O)Nc3cc(OC)c(OC)c(OC)c3)n2)cc1OC`, with inactive: 18.7%; and `CCc1cccc(NC(=O)C2CCCN(c3ncnc4onc(-c5ccc(F)cc5)c34)C2)c1` (stereo not given), with inactive: 6.66%.
With `CCCC(O)c1nc2ccccc2n1CCCOc1ccc(Cl)cc1` (stereo not given), the compound was classed as inactive.
Turning to `COc1cc(C(=O)NCC(c2ccc3c(c2)OCO3)N2CCOCC2)cc(OC)c1OC` (stereo not given), the call was inactive.
In the case of `Cc1ccc(NC(=O)c2c(C)cc(C)nc2SCC(=O)Nc2ccc(Br)cc2)cc1`, the “activity change, negative = inhibition” value was inactive: -18.1%.
Still for that read-out and setting: the same measure for `CC(=O)N1c2ccccc2CC1C(=O)N1CCN(c2ccccc2)CC1` (stereo not given): inactive: 2.98%; for `CCOC(=O)Cc1ccc(NC(=O)NCc2c(-n3cccc3)sc3c2CCCC3)cc1`: inactive: 8.81%.
The same measure, in the same setting: the same measure for `COc1ccc(N(Cc2cc3ccccc3[nH]c2=O)C(=O)c2cccc(Cl)c2)cc1`: inactive: 11.6%.
As for `O=C(CS(=O)(=O)c1cccc2nsnc12)Nc1ccccc1Cl`, the call was inactive.
With `CCCCN1CC(c2nc3ccccc3n2CCCCOc2cc(C)ccc2C)CC1=O` (stereo not given), the “activity change, negative = inhibition” value is inactive: -2.98%.
For the compound `CCc1nc2ccc(C(=O)NCCc3ccccc3OC)cc2nc1CC`, the call was inactive.
Regarding `CCOc1ccc(N2CC(NC(=O)c3ccco3)CC2=O)cc1` (stereo not given), the “activity change, negative = inhibition” value was inactive: 1.66%.
The same measure, in the same setting: then `O=C(/C=C/c1ccccc1)Nc1cc(-c2nc3cc(Cl)ccc3o2)ccc1Cl`, with inactive: 1.66%.
Take `Cc1cccc(OCC(=O)Nc2cccc(OCc3cc(=O)n4cccc(C)c4n3)c2)c1`: the “activity change, negative = inhibition” value was inactive: -15.6%.
As to `Cc1cc2nc(-c3cccc(NC(=O)c4cccc5ccccc45)c3)oc2cc1C`, the “activity change, negative = inhibition” value was inactive: -9.31%.
Regarding `CCOCCCNC(=O)c1ccc(-n2c(-c3ccccc3)cc3c2CCCC3)cc1`, the “activity change, negative = inhibition” value was inactive: 8.23%.
Same read-out and setting: the same measure for `CCSc1ncc(Cl)c(C(=O)N2CCN(c3ccccc3OC)CC2)n1`: inactive: -29.3%.
`Cc1ccc(NC(=O)/C=C\C(=O)N(c2ccc(C(C)C)cc2)C(C(=O)NCc2ccco2)c2ccc(Cl)cc2)cc1` (stereo not given): the call was inactive.
Turning to `CCCCNC(=O)c1ccc2c(c1)N(Cc1ccc(F)cc1)C(=O)c1ccccc1S2=O` (stereo not given), the compound was called inactive.
For the compound `Cc1cc(C)c(NC(=O)Cn2c(=O)c3cccn3c3ccccc32)c(C)c1`, the “activity change, negative = inhibition” value is inactive: -2.29%.
Still for that read-out and setting: then `COc1cccc(-n2ccnc2SCC(=O)Nc2c(C)cc(C)cc2C)c1`, with inactive: -5.72%.
With `COc1ccc(CNC(=O)C2CCN(S(=O)(=O)c3c(C)noc3/C=C/c3ccccc3F)CC2)cc1`, the call was inactive.
For `COc1ccc(Cn2ccc3nc(C)c(C(=O)Nc4ccc(OC)cc4)cc3c2=O)cc1`, the “activity change, negative = inhibition” value was inactive: 0.468%.
On the same count and under the same terms, the same measure for `Cc1cccc(C(=O)OCc2cc(=O)n3ccsc3n2)c1`: inactive: 6.85%.
Consider `COc1ccc(CCNC(=O)CCn2c(=O)c3ccccc3n(Cc3ccccc3F)c2=O)cc1OC`, for which the outcome was inactive.
`O=c1cc(-c2ccc(O)cc2)oc2cc(O)cc(O)c12`: the “activity change, negative = inhibition” value is inactive: -0.608%.
The same measure, in the same setting: the same measure for `CC(=O)Nc1nc2n(n1)C(c1ccc(F)cc1)C=C(c1ccc(Cl)cc1)N2` (stereo not given): inactive: -5.15%.
Take `CC(C(=O)NCCSCc1cccc(Cl)c1)N(c1ccccc1)S(C)(=O)=O` (stereo not given): the call was inactive.
On to `Cc1ccc(-n2c(C)cc(C(=O)C(=O)Nc3ccccc3)c2C)c(C)c1`, for which the “activity change, negative = inhibition” value was inactive: 6.61%.
For the compound `Cc1ccc(-c2nc(C)c(CCNC(=O)c3cccs3)s2)cc1`, the “activity change, negative = inhibition” value is inactive: 4.51%.
Still for that read-out and setting: then `CC(=O)c1cccc(NC(=O)C2CCN(S(=O)(=O)c3ccc4c(c3)CCCN4C(C)=O)CC2)c1`, with inactive: 7.17%.
As for `COc1cc(C(=O)Nc2ccccc2-c2nc(-c3ccccc3)no2)cc(OC)c1OC`, the call was inactive.
On to `CC(C)c1ccc(NC(=O)C2CCN(C(=O)c3ccc(F)cc3)CC2)cc1`, for which the “activity change, negative = inhibition” value was inactive: 3.87%.
Same read-out and setting: then `Cc1ccc(CN2CCCn3nc(C(=O)NCCc4ccccc4C)cc3C2=O)cc1`, with inactive: -5.4%.
With `CCc1cccc(NC(=O)c2cc3c(=O)n(Cc4ccccc4)ccc3nc2C)c1`, the “activity change, negative = inhibition” value was inactive: 6.56%.
Take `C[C@H](NC(=O)c1sccc1OCc1ccc(Cl)cc1)c1ccccc1`: the “activity change, negative = inhibition” value was inactive: -5.83%.
On the same count and under the same terms, the same measure for `Cc1c(C(=O)OCc2ccccc2)[nH]c2c1C(=O)CC(c1ccc(C(C)(C)C)cc1)C2` (stereo not given): inactive: -0.887%; for `CC1CCN(c2nn3c(=O)c(C(=O)NCCCOC(C)C)cnc3s2)CC1`: inactive: -0.939%.
The same measure, in the same setting: the same measure for `Cc1cccc(N(C)c2nc3ccc(C(=O)c4ccccc4)cc3n3c(C)nnc23)c1`: inactive: -7.38%; for `Cc1ccc(-n2nc(C(=O)Nc3ccc(F)cc3F)c3c4ccccc4n(C)c3c2=O)cc1`: inactive: -0.24%; for `Cc1ccc(C)c(NC(=O)CN(C)S(=O)(=O)c2cccc3nsnc23)c1`: inactive: 6.36%.
For the compound `CCN(CC)c1nc2ccccc2nc1C(=O)Nc1ccc(C(C)=O)cc1`, the call was inactive.
On the same count and under the same terms, then `COc1ccccc1NC(=O)Cn1cc(S(=O)(=O)Cc2ccccc2)c2ccccc21`, with “inactive”.
In the case of `CCCCCOc1ccc(/C=C/C(=O)Nc2sc(C)c(C)c2C(=O)OCC)cc1OC`, the “activity change, negative = inhibition” value is inactive: -29.6%.
On the same count and under the same terms, then `Cc1ccc(C)c(NC(=O)Cn2c(=O)n(CCC(C)C)c(=O)c3cccnc32)c1`, with inactive: -3.69%.
As to `CC(C)(C)C1CCc2c(sc(NC(=O)c3cc4ccccc4c(=O)o3)c2C(N)=O)C1` (stereo not given), the result was inactive.
`Cc1ccc(NC(=O)CSc2nc(=O)n(Cc3cccnc3)c3c2CCC3)cc1F`: the “activity change, negative = inhibition” value is inactive: -2.34%.
On the same count and under the same terms, the same measure for `COc1ccc(NC(=O)Cn2nnc(C(=O)NCc3cccs3)c2N)cc1`: inactive: -3.03%; for `Cc1ccc(-c2csc(-c3nc(-c4ccc(Br)s4)cs3)n2)cc1`: inactive: -14.6%.
On the same count and under the same terms, the same measure for `CCN(CC)CCNC(=O)Cn1ncc2c3ccccc3n(Cc3ccc(Cl)cc3)c2c1=O`: inactive: -10.2%; for `CCc1cccc(C)c1NC(=O)c1cc(S(=O)(=O)N(Cc2ccc(C(=O)OC)cc2)Cc2ccc(OC)c(OC)c2)ccc1F`: inactive: -8.85%.
Same read-out and setting: then `CCC(CC)C(=O)Nc1ccc2nc(SCC(=O)N3CCCC3)sc2c1`, with inactive: -10.4%.
Consider `COc1ccc(NC(=O)CN2C(=O)CC(c3ccc(C)c(C)c3)=Nc3ccccc32)cc1OC`, for which the “activity change, negative = inhibition” value is inactive: 4.71%.
Still for that read-out and setting: the same measure for `COc1ccc(Cc2nc3ccc(C(=O)NCc4ccccc4C)cc3o2)cc1`: inactive: 9.89%; for `COc1ccc(NC(=O)[C@H]2O[C@@H]3OC(C)(C)O[C@@H]3[C@H]3OC(C)(C)O[C@H]32)c(OC)c1`: inactive: 7.2%.
For the compound `Cc1ccc2c(c1)c1c(c(=O)n(-c3cccc(Cl)c3)c(=O)n1CC(=O)NCC1CCCO1)n2C` (stereo not given), the call was inactive.
As for `CCOC(=O)C1CCCN(c2nc3c(S(=O)(=O)c4ccc(CC)cc4)nnn3c3ccsc23)C1` (stereo not given), the “activity change, negative = inhibition” value is inactive: -17.4%.
On the same count and under the same terms, then `Cc1c(C(=O)NCc2ccc(F)cc2)oc2ccc(S(=O)(=O)N3CCCCC3)cc12`, with inactive: 5.55%; and `CN(C)c1ccc(/C=C/c2nc(-c3ccccc3O)n(-c3ccccc3)n2)cc1`, with inactive: 2.62%.

Source of the values: PubChem BioAssay AID1963576 (National Center for Advancing Translational Sciences (NCATS), 2024).
